The supplement of paper PMC9151546
Single values are uncertain, as repeats are few or missing.

Key:
[1] = tested on: CHO-K1; test: micronucleus frequency (% of nucleated events); higher = more micronuclei (genotoxic)
[2] = tested on: CHO-K1; test: hypodiploid nuclei frequency (% of nucleated events); higher = more hypodiploid events (aneugenic)
[3] = tested on: CHO-K1; test: relative survival (nuclei to bead ratio vs DMSO control) (% of vehicle control); higher = more surviving cells
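Throughout, for hypodiploid nuclei frequency (% of nucleated events): hypodiploid nuclei gated on a flow cytometer with 488 nm excitation after SYTOX Green staining, cultures at 37 °C, positive controls vinblastine without S9 and cyclophosphamide with S9.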
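Throughout, for micronucleus frequency (% of nucleated events): cells lysed with nuclei stained by SYTOX Green, then micronucleus-gated events counted against nucleated events by flow cytometry with 488 nm excitation.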
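Throughout, for relative survival (nuclei to bead ratio vs DMSO control): Lysed-cell nuclei stained with SYTOX Green and counted against counting beads by flow cytometry at 488 nm excitation, with vinblastine (no S9) and cyclophosphamide (plus S9) as positive controls.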

Clc1ccccc1Cl [1,2-Dichlorobenzene]
Conditions | hypodiploid nuclei frequency, [2] [%] | micronucleus frequency, [1] [%] | relative survival, [3]
concentration: 4.5 (µM), S9 metabolic activation: with S9, exposure time: 3-4 hours | 0.28 | 2.1 | 150
concentration: 4.5 (µM), S9 metabolic activation: without S9, exposure time: 24 hours | 0.72 | 1.52 | 111
concentration: 5.63 (µM), S9 metabolic activation: with S9, exposure time: 3-4 hours | 0.16 | 1.74 | 163
concentration: 5.63 (µM), S9 metabolic activation: without S9, exposure time: 24 hours | 0.56 | 2.12 | 116
concentration: 7.04 (µM), S9 metabolic activation: with S9, exposure time: 3-4 hours | 0.32 | 1.26 | 156
concentration: 7.04 (µM), S9 metabolic activation: without S9, exposure time: 24 hours | 0.58 | 1.96 | 104
concentration: 8.8 (µM), S9 metabolic activation: with S9, exposure time: 3-4 hours | 0.2 | 1.38 | 183
concentration: 8.8 (µM), S9 metabolic activation: without S9, exposure time: 24 hours | 0.62 | 1.74 | 133
concentration: 11 (µM), S9 metabolic activation: with S9, exposure time: 3-4 hours | 0.28 | 1.24 | 150
concentration: 11 (µM), S9 metabolic activation: without S9, exposure time: 24 hours | 0.58 | 2.26 | 114
concentration: 13.7 (µM), S9 metabolic activation: with S9, exposure time: 3-4 hours | 0.22 | 1.48 | 124
concentration: 13.7 (µM), S9 metabolic activation: without S9, exposure time: 24 hours | 0.78 | 1.9 | 111
concentration: 17.2 (µM), S9 metabolic activation: with S9, exposure time: 3-4 hours | 0.3 | 1 | 120
concentration: 17.2 (µM), S9 metabolic activation: without S9, exposure time: 24 hours | 0.8 | 1.92 | 104
concentration: 21.5 (µM), S9 metabolic activation: with S9, exposure time: 3-4 hours | 0.16 | 1.22 | 146
concentration: 21.5 (µM), S9 metabolic activation: without S9, exposure time: 24 hours | 0.66 | 1.7 | 119
concentration: 26.8 (µM), S9 metabolic activation: with S9, exposure time: 3-4 hours | 0.26 | 1.2 | 152
concentration: 26.8 (µM), S9 metabolic activation: without S9, exposure time: 24 hours | 0.54 | 1.74 | 99.3
concentration: 33.6 (µM), S9 metabolic activation: with S9, exposure time: 3-4 hours | 0.16 | 1.06 | 154
concentration: 33.6 (µM), S9 metabolic activation: without S9, exposure time: 24 hours | 0.64 | 2.1 | 117
concentration: 41.9 (µM), S9 metabolic activation: with S9, exposure time: 3-4 hours | 0.2 | 1.58 | 160
concentration: 41.9 (µM), S9 metabolic activation: without S9, exposure time: 24 hours | 0.76 | 1.96 | 137
concentration: 52.4 (µM), S9 metabolic activation: with S9, exposure time: 3-4 hours | 0.36 | 1.94 | 162
concentration: 52.4 (µM), S9 metabolic activation: without S9, exposure time: 24 hours | 0.98 | 2.26 | 112
concentration: 65.5 (µM), S9 metabolic activation: with S9, exposure time: 3-4 hours | 0.14 | 1.58 | 141
concentration: 65.5 (µM), S9 metabolic activation: without S9, exposure time: 24 hours | 0.56 | 2.64 | 94.9
concentration: 81.9 (µM), S9 metabolic activation: with S9, exposure time: 3-4 hours | 0.3 | 1.68 | 184
concentration: 81.9 (µM), S9 metabolic activation: without S9, exposure time: 24 hours | 0.96 | 2.04 | 121
concentration: 102 (µM), S9 metabolic activation: with S9, exposure time: 3-4 hours | 0.28 | 1.34 | 128
concentration: 102 (µM), S9 metabolic activation: without S9, exposure time: 24 hours | 0.74 | 1.94 | 129
concentration: 128 (µM), S9 metabolic activation: with S9, exposure time: 3-4 hours | 0.2 | 1 | 169
concentration: 128 (µM), S9 metabolic activation: without S9, exposure time: 24 hours | 1.22 | 2.24 | 109
concentration: 160 (µM), S9 metabolic activation: with S9, exposure time: 3-4 hours | 0.3 | 1.54 | 132
concentration: 160 (µM), S9 metabolic activation: without S9, exposure time: 24 hours | 0.72 | 1.86 | 95.4
concentration: 200 (µM), S9 metabolic activation: with S9, exposure time: 3-4 hours | 0.14 | 1.36 | 131
concentration: 200 (µM), S9 metabolic activation: without S9, exposure time: 24 hours | 1.14 | 2.56 | 81

CC(=O)OC1CC(C)OC(C)O1 (configuration not stated) [Dimethoxane]
Conditions | hypodiploid nuclei frequency, [2] [%] | micronucleus frequency, [1] [%] | relative survival, [3]
concentration: 4.5 (µM), S9 metabolic activation: with S9, exposure time: 3-4 hours | 0.3 | 1.76 | 85.9
concentration: 4.5 (µM), S9 metabolic activation: without S9, exposure time: 24 hours | 1.6 | 1.36 | 111
concentration: 5.63 (µM), S9 metabolic activation: with S9, exposure time: 3-4 hours | 0.26 | 1.92 | 76.5
concentration: 5.63 (µM), S9 metabolic activation: without S9, exposure time: 24 hours | 1.3 | 1.56 | 105
concentration: 7.04 (µM), S9 metabolic activation: with S9, exposure time: 3-4 hours | 0.34 | 2.1 | 96.7
concentration: 7.04 (µM), S9 metabolic activation: without S9, exposure time: 24 hours | 1.1 | 1.64 | 151
concentration: 8.8 (µM), S9 metabolic activation: with S9, exposure time: 3-4 hours | 0.4 | 1.82 | 93.7
concentration: 8.8 (µM), S9 metabolic activation: without S9, exposure time: 24 hours | 0.96 | 1.28 | 145
concentration: 11 (µM), S9 metabolic activation: with S9, exposure time: 3-4 hours | 0.36 | 1.9 | 103
concentration: 11 (µM), S9 metabolic activation: without S9, exposure time: 24 hours | 1.22 | 1.72 | 117
concentration: 13.7 (µM), S9 metabolic activation: with S9, exposure time: 3-4 hours | 0.38 | 2.18 | 82.2
concentration: 13.7 (µM), S9 metabolic activation: without S9, exposure time: 24 hours | 1.08 | 1.6 | 156
concentration: 17.2 (µM), S9 metabolic activation: with S9, exposure time: 3-4 hours | 0.32 | 2.08 | 91.8
concentration: 17.2 (µM), S9 metabolic activation: without S9, exposure time: 24 hours | 1.2 | 1.6 | 112
concentration: 21.5 (µM), S9 metabolic activation: with S9, exposure time: 3-4 hours | 0.2 | 1.72 | 69.4
concentration: 21.5 (µM), S9 metabolic activation: without S9, exposure time: 24 hours | 1.12 | 1.8 | 112
concentration: 26.8 (µM), S9 metabolic activation: with S9, exposure time: 3-4 hours | 0.34 | 1.82 | 75.8
concentration: 26.8 (µM), S9 metabolic activation: without S9, exposure time: 24 hours | 1.52 | 2.52 | 96.8
concentration: 33.6 (µM), S9 metabolic activation: with S9, exposure time: 3-4 hours | 0.34 | 1.76 | 70
concentration: 33.6 (µM), S9 metabolic activation: without S9, exposure time: 24 hours | 1.74 | 2.02 | 80.6
concentration: 41.9 (µM), S9 metabolic activation: with S9, exposure time: 3-4 hours | 0.46 | 2.12 | 70.2
concentration: 41.9 (µM), S9 metabolic activation: without S9, exposure time: 24 hours | 1.4 | 2.3 | 87.1
concentration: 52.4 (µM), S9 metabolic activation: with S9, exposure time: 3-4 hours | 0.88 | 2.21 | 43.1
concentration: 52.4 (µM), S9 metabolic activation: without S9, exposure time: 24 hours | 1.84 | 2.42 | 83.1
concentration: 65.5 (µM), S9 metabolic activation: with S9, exposure time: 3-4 hours | 0.38 | 2.08 | 73.7
concentration: 65.5 (µM), S9 metabolic activation: without S9, exposure time: 24 hours | 1.88 | 2.24 | 98.2
concentration: 81.9 (µM), S9 metabolic activation: with S9, exposure time: 3-4 hours | 0.5 | 2.62 | 55.5
concentration: 81.9 (µM), S9 metabolic activation: without S9, exposure time: 24 hours | 1.68 | 1.84 | 83.6
concentration: 102 (µM), S9 metabolic activation: with S9, exposure time: 3-4 hours | 0.62 | 2.44 | 58.8
concentration: 102 (µM), S9 metabolic activation: without S9, exposure time: 24 hours | 2 | 2.68 | 64.4
concentration: 128 (µM), S9 metabolic activation: with S9, exposure time: 3-4 hours | 0.37 | 3.31 | 49.8
concentration: 128 (µM), S9 metabolic activation: without S9, exposure time: 24 hours | 1.88 | 3.24 | 61.6
concentration: 160 (µM), S9 metabolic activation: with S9, exposure time: 3-4 hours | 0.62 | 4.39 | 43.8
concentration: 160 (µM), S9 metabolic activation: without S9, exposure time: 24 hours | 1.04 | 3.96 | 46.5
concentration: 200 (µM), S9 metabolic activation: with S9, exposure time: 3-4 hours | – | – | 28.3
concentration: 200 (µM), S9 metabolic activation: without S9, exposure time: 24 hours | 0.88 | 3.86 | 43.6

OCc1ccccc1 [Benzyl alcohol]
Conditions | hypodiploid nuclei frequency, [2] [%] | micronucleus frequency, [1] [%] | relative survival, [3]
concentration: 4.48 (µM), S9 metabolic activation: with S9, exposure time: 3-4 hours | 0.26 | 1.72 | 103
concentration: 4.48 (µM), S9 metabolic activation: without S9, exposure time: 24 hours | 0.77 | 1.78 | 106
concentration: 5.6 (µM), S9 metabolic activation: with S9, exposure time: 3-4 hours | 0.46 | 2.86 | 117
concentration: 5.6 (µM), S9 metabolic activation: without S9, exposure time: 24 hours | 0.56 | 1.6 | 121
concentration: 7 (µM), S9 metabolic activation: with S9, exposure time: 3-4 hours | 0.3 | 1.34 | 102
concentration: 7 (µM), S9 metabolic activation: without S9, exposure time: 24 hours | 0.78 | 2.16 | 116
concentration: 8.75 (µM), S9 metabolic activation: with S9, exposure time: 3-4 hours | 0.36 | 1.62 | 115
concentration: 8.75 (µM), S9 metabolic activation: without S9, exposure time: 24 hours | 0.53 | 1.81 | 116
concentration: 10.9 (µM), S9 metabolic activation: with S9, exposure time: 3-4 hours | 0.18 | 1.24 | 112
concentration: 10.9 (µM), S9 metabolic activation: without S9, exposure time: 24 hours | 0.55 | 1.84 | 115
concentration: 13.7 (µM), S9 metabolic activation: with S9, exposure time: 3-4 hours | 0.2 | 1.48 | 108
concentration: 13.7 (µM), S9 metabolic activation: without S9, exposure time: 24 hours | 0.66 | 1.47 | 117
concentration: 17.1 (µM), S9 metabolic activation: with S9, exposure time: 3-4 hours | 0.36 | 1.6 | 131
concentration: 17.1 (µM), S9 metabolic activation: without S9, exposure time: 24 hours | 0.88 | 1.76 | 138
concentration: 21.4 (µM), S9 metabolic activation: with S9, exposure time: 3-4 hours | 0.4 | 1.54 | 122
concentration: 21.4 (µM), S9 metabolic activation: without S9, exposure time: 24 hours | 0.9 | 1.66 | 112
concentration: 26.7 (µM), S9 metabolic activation: with S9, exposure time: 3-4 hours | 0.34 | 1.52 | 157
concentration: 26.7 (µM), S9 metabolic activation: without S9, exposure time: 24 hours | 0.8 | 1.82 | 115
concentration: 33.4 (µM), S9 metabolic activation: with S9, exposure time: 3-4 hours | 0.2 | 1.44 | 110
concentration: 33.4 (µM), S9 metabolic activation: without S9, exposure time: 24 hours | 0.71 | 1.42 | 108
concentration: 41.7 (µM), S9 metabolic activation: with S9, exposure time: 3-4 hours | 0.34 | 1.42 | 105
concentration: 41.7 (µM), S9 metabolic activation: without S9, exposure time: 24 hours | 0.65 | 1.72 | 102
concentration: 52.2 (µM), S9 metabolic activation: with S9, exposure time: 3-4 hours | 0.44 | 1.24 | 102
concentration: 52.2 (µM), S9 metabolic activation: without S9, exposure time: 24 hours | 0.7 | 1.63 | 114
concentration: 65.2 (µM), S9 metabolic activation: with S9, exposure time: 3-4 hours | 0.38 | 0.9 | 121
concentration: 65.2 (µM), S9 metabolic activation: without S9, exposure time: 24 hours | 0.83 | 2.7 | 104
concentration: 81.5 (µM), S9 metabolic activation: with S9, exposure time: 3-4 hours | 0.2 | 1.16 | 131
concentration: 81.5 (µM), S9 metabolic activation: without S9, exposure time: 24 hours | 0.89 | 2.25 | 110
concentration: 102 (µM), S9 metabolic activation: with S9, exposure time: 3-4 hours | 0.22 | 1.34 | 120
concentration: 102 (µM), S9 metabolic activation: without S9, exposure time: 24 hours | 1 | 2.05 | 109
concentration: 127 (µM), S9 metabolic activation: with S9, exposure time: 3-4 hours | 0.3 | 1.3 | 122
concentration: 127 (µM), S9 metabolic activation: without S9, exposure time: 24 hours | 1.03 | 2.19 | 108
concentration: 159 (µM), S9 metabolic activation: with S9, exposure time: 3-4 hours | 0.3 | 1.5 | 133
concentration: 159 (µM), S9 metabolic activation: without S9, exposure time: 24 hours | 1.16 | 2.26 | 117
concentration: 199 (µM), S9 metabolic activation: with S9, exposure time: 3-4 hours | 0.2 | 1.28 | 139
concentration: 199 (µM), S9 metabolic activation: without S9, exposure time: 24 hours | 1.34 | 2.1 | 109
